Measured values from PMC5307367.
These are yes or no findings as the source states them, for the method shown. Binding seen in cells or lysates may run through a third protein. Some binding calls cover weakened binding; strength is not graded here. For some of these results: Tags and fused reporters may be left off the sequences shown. Values belong to the binder of their own block, whether it stands above or below them.

Chains of the proteins cited; added tags and fusions are not shown. Lines headed by an entry give the natural chain unless they say otherwise; changes in a name come on top.
UniProt Q14680: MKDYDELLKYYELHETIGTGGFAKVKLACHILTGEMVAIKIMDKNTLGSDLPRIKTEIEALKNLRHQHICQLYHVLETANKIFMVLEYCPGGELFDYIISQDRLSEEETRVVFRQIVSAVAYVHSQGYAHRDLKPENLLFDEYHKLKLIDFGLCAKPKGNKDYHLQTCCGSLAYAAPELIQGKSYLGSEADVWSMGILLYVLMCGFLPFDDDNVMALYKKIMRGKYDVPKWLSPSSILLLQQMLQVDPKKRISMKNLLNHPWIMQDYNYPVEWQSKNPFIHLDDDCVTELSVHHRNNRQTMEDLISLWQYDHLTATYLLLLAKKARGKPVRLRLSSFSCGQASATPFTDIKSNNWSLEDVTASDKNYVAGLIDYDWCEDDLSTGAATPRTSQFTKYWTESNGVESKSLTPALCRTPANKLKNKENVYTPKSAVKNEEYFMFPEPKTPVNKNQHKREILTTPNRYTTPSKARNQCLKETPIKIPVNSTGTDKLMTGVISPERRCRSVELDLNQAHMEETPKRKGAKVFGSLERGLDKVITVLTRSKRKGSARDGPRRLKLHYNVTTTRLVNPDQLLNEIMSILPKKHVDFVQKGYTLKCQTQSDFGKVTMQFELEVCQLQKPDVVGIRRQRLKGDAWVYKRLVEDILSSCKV
UniProt Q61846: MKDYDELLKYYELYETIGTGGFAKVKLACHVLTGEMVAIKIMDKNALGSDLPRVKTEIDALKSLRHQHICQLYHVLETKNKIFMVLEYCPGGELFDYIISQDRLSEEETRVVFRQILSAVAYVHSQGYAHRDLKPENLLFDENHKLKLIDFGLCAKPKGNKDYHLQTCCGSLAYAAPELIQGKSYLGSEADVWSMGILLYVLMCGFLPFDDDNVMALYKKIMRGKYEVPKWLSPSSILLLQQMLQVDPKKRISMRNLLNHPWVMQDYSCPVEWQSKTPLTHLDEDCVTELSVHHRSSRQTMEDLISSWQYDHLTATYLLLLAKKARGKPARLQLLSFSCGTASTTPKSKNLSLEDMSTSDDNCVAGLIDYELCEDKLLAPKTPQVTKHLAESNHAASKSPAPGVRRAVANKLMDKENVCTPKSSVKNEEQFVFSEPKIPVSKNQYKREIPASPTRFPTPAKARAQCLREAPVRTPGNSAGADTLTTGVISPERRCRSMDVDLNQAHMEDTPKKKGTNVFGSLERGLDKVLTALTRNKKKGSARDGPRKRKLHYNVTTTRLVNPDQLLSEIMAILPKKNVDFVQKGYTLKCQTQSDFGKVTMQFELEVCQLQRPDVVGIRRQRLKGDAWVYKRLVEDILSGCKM

How the values were obtained:
[1] = molecular target: endogenous MPK38 (MELK) of HEK293 cells (human (endogenous in HEK293)) (UniProt Q14680); experiment: co-IP; endogenous proteins of HEK293 cells; immunoprecipitation with an anti-MPK38 antibody (rabbit preimmune serum as control), immunoblot with an anti-ZPR9 antibody; lysates treated with H2O2, DTT or beta-ME on ice for 0.5-1 h (Fig. 3A), or cells treated with H2O2, thapsigargin, ionomycin, TNF-alpha, TGF-beta1, 5FU or doxorubicin (Fig. 4)
[2] = molecular target: GST-tagged MPK38 C269S (mouse) (UniProt Q61846); experiment: pull-down; in vivo binding assay: HEK293 cells co-transfected with a GST-tagged and a FLAG-tagged protein, GST precipitates (GST purification) of the lysate, immunoblot with an anti-FLAG antibody (Fig. 3B)
[3] = molecular target: GST-tagged MPK38 C286S (mouse) (UniProt Q61846); experiment: as above
[4] = molecular target: GST-tagged MPK38 C269S/C286S (mouse) (UniProt Q61846); experiment: as above
[5] = molecular target: GST-tagged MPK38, wild type (mouse) (UniProt Q61846); experiment: as above
[6] = molecular target: GST-tagged MPK38, wild type (mouse) (UniProt Q61846); experiment: pull-down; HEK293 cells transfected with the indicated expression vectors, with or without wild-type or T252A ZPR9; lysates precipitated with glutathione-Sepharose beads (GST purification), immunoblot with an anti-FLAG antibody (Fig. 8B and 8C, left panels)
[7] = molecular target: endogenous MPK38 (MELK) of HEK293 cells (human (endogenous in HEK293)) (UniProt Q14680); experiment: co-IP; HEK293 cells transfected with wild-type or T252A ZPR9 or without; MPK38 immunoprecipitates (IP: anti-MPK38) of the endogenous protein, immunoblot with anti-Mdm2, anti-Trx or the indicated antibodies (Fig. 8B and 8C right panels, 8D lower panels)

binding [1]: binds
B1: endogenous ZPR9 of HEK293 cells (protein, UniProt Q969S3 1-477)
chain: MATYTCITCRVAFRDADMQRAHYKTDWHRYNLRRKVASMAPVTAEGFQERVRAQRAVAEEESKGSATYCTVCSKKFASFNAYENHLKSRRHVELEKKAVQAVNRKVEMMNEKNLEKGLGVDSVDKDAMNAAIQQAIKAQPSMSPKKAPPAPAKEARNVVAVGTGGRGTHDRDPSEKPPRLQWFEQQAKKLAKQQEEDSEEEEEDLDGDDWEDIDSDEELECEDTEAMDDVVEQDAEEEEAEEGPPLGAIPITDCLFCSHHSSSLMKNVAHMTKDHSFFIPDIEYLSDIKGLIKYLGEKVGVGKICLWCNEKGKSFYSTEAVQAHMNDKSHCKLFTDGDAALEFADFYDFRSSYPDHKEGEDPNKAEELPSEKNLEYDDETMELILPSGARVGHRSLMRYYKQRFGLSRAVAVAKNRKAVGRVLQQYRALGWTGSTGAALMRERDMQYVQRMKSKWMLKTGMKNNATKQMHFRVQVRF

binding [2]: binds weakly
binding [3]: binds weakly
binding [4]: no binding
binding [5]: binds
B2: FLAG-tagged ZPR9, wild type (protein, UniProt Q969S3 1-477)
chain: B1 chain

binding [6]: binds
B3: Trx, transfected (protein, UniProt P10599 1-105)
chain: MVKQIESKTAFQEALDAAGDKLVVVDFSATWCGPCKMIKPFFHSLSEKYSNVIFLEVDVDDCQDVASECEVKCMPTFQFFKKGQKVGEFSGANKEKLEATINELV

binding [7]: binds
B4: endogenous Trx of HEK293 cells (protein, UniProt P10599 1-105)
chain: B3 chain
